From the antibiotic and cytotoxicity screens of Wong et al. (2023) come the findings set out here.

The subject of one test is HSkMC. The experiment in a line: cytotoxicity call (relative viability < 0.9). The following applies: 10 µM.
The test system of the next test is HepG2. In words: cytotoxicity call (relative viability < 0.9). The following applies: 10 µM.
Another test deals with S. aureus RN4220. In words: growth inhibition call (relative growth <= 0.2). The conditions noted are these: 50 µM.

This is one part of the list.

As for `C[C@@H]1CN([C@H](C)CO)C(=O)c2cc(C#CCc3ccccc3)cnc2O[C@@H]1CN(C)C(=O)C1CCOCC1`, the cytotoxicity call in the test on HSkMC and in the test on HepG2 was “inactive” throughout. Also, in the test with S. aureus RN4220, the growth inhibition call is “inactive”.

Take `C=CCOc1ccc(CNn2nnnc2N)cc1`: the cytotoxicity call in the test on HSkMC and in the test with HepG2 was “inactive” each time. The growth inhibition call in the test with S. aureus RN4220 is “inactive”.

On to `Cc1ccc(S(=O)(=O)Nc2ccc3c(c2)C(=O)N([C@@H](C)CO)C[C@H](C)[C@@H](CN(C)Cc2ccncc2)OCCCC[C@H](C)O3)cc1`, for which the cytotoxicity call with HSkMC and with HepG2 was “inactive” throughout. Further, in the test on S. aureus RN4220, the growth inhibition call was “inactive”.

As for `Cc1noc(C)c1NC(=O)Nc1ccc2c(c1)C(=O)N([C@@H](C)CO)C[C@H](C)[C@H](CN(C)C(=O)NC1CCCCC1)OCCCC[C@H](C)O2`, the cytotoxicity call in the test with HSkMC and with HepG2 was “inactive” each time. In the test on S. aureus RN4220, the growth inhibition call is “inactive”.

Take `Cc1noc(C)c1S(=O)(=O)Nc1ccc2c(c1)CC(=O)N([C@@H](C)CO)C[C@H](C)[C@H](CN(C)Cc1ccc(-c3ccccc3)cc1)O2`: the cytotoxicity call with HSkMC and in the test with HepG2 was “inactive” each time. Moreover, the growth inhibition call in the test with S. aureus RN4220 was “inactive”.

As for `Cc1ccc(S(=O)(=O)Nc2ccc3c(c2)C(=O)N([C@@H](C)CO)C[C@H](C)[C@@H](CN(C)C(=O)Nc2ccc(C(F)(F)F)cc2)O3)cc1`, the cytotoxicity call in the test with HSkMC and with HepG2 was “inactive” in each case. In addition, the growth inhibition call with S. aureus RN4220 is “inactive”.

With `CC=Cc1ccc2n(c1=O)C[C@H]1[C@H](CO)[C@@H](C(=O)NCCc3cn(C)cn3)[C@@H]2N1C(=O)C1CC1`, the cytotoxicity call in the test with HSkMC and in the test with HepG2 was “inactive” in each case. Besides, the growth inhibition call with S. aureus RN4220 is “inactive”.

With `C[C@@H]1CCCCO[C@@H](CN(C)Cc2ccc(C(=O)O)cc2)[C@H](C)CN([C@@H](C)CO)C(=O)c2cc(NC(=O)c3ccccc3)ccc2O1`, the cytotoxicity call with HSkMC and with HepG2 was “inactive” each time. Besides, the growth inhibition call in the test on S. aureus RN4220 is “inactive”.

On to `Cc1noc(C)c1S(=O)(=O)N(C)C[C@@H]1Oc2ccc(N(C)C)cc2CC(=O)N([C@H](C)CO)C[C@@H]1C`, for which the cytotoxicity call in the test on HSkMC and in the test with HepG2 was “inactive” in each case. For the same compound, the growth inhibition call in the test with S. aureus RN4220 was “inactive”.

In the case of `CN(C)CC(=O)N[C@@H]1CC[C@@H](CCNS(=O)(=O)c2ccccc2)O[C@H]1CO`, the cytotoxicity call with HSkMC and with HepG2 was “inactive” throughout. Besides, the growth inhibition call in the test on S. aureus RN4220 was “inactive”.

In the case of `COc1ccc(NC(=O)N(C)C[C@H]2Oc3ncc(C#C[C@@H](C)O)cc3C(=O)N([C@@H](C)CO)C[C@@H]2C)cc1`, the cytotoxicity call in the test on HSkMC and in the test with HepG2 was “inactive” each time. Besides, in the test with S. aureus RN4220, the growth inhibition call is “inactive”.

With `CCCNC(=O)Nc1ccc2c(c1)C(=O)N(C)C[C@@H](OC)[C@@H](C)CN(C(=O)C1CCOCC1)[C@H](C)CO2`, the cytotoxicity call in the test on HSkMC and in the test on HepG2 was “inactive” throughout. Besides, the growth inhibition call in the test on S. aureus RN4220 was “inactive”.

In the case of `COc1ccccc1C#Cc1cnc2c(c1)C(=O)N([C@H](C)CO)C[C@H](C)[C@@H](CN(C)C(=O)CN(C)C)O2`, the cytotoxicity call in the test with HSkMC and with HepG2 was “inactive” in each case. In addition, the growth inhibition call in the test with S. aureus RN4220 is “inactive”.

Take `COc1ccc(NC(=O)Nc2ccc3c(c2)C(=O)N([C@@H](C)CO)C[C@H](C)[C@H](CN(C)CC2CCCCC2)O3)cc1`: the cytotoxicity call in the test with HSkMC and with HepG2 was “inactive” in each case. In addition, in the test with S. aureus RN4220, the growth inhibition call was “inactive”.

As to `CC(C)NC(=O)N(C)C[C@H]1Oc2ccc(NC(=O)CCCN(C)C)cc2C(=O)N([C@H](C)CO)C[C@@H]1C`, the cytotoxicity call in the test with HSkMC and with HepG2 was “inactive” each time. In addition, the growth inhibition call in the test with S. aureus RN4220 is “inactive”.

For the compound `C[C@@H]1CN([C@@H](C)CO)S(=O)(=O)c2ccc(C#Cc3cccc(F)c3)cc2O[C@H]1CN(C)C(=O)CN1CCOCC1`, the cytotoxicity call with HSkMC and in the test with HepG2 was “inactive” in each case. Further, the growth inhibition call in the test with S. aureus RN4220 was “inactive”.

Regarding `C[C@@H]1CCCCO[C@@H](CN(C)S(=O)(=O)c2ccc(Cl)cc2)[C@H](C)CN([C@@H](C)CO)C(=O)c2cc(NC(=O)Nc3ccc4c(c3)OCO4)ccc2O1`, the cytotoxicity call in the test with HSkMC and in the test with HepG2 was “inactive” in each case. In addition, the growth inhibition call with S. aureus RN4220 was “inactive”.

For the compound `Cc1ccc(S(=O)(=O)Nc2ccc3c(c2)CC(=O)N([C@@H](C)CO)C[C@H](C)[C@H](CN(C)CC2CC2)O3)cc1`, the cytotoxicity call in the test with HSkMC and in the test with HepG2 was “inactive” in each case. Moreover, the growth inhibition call in the test with S. aureus RN4220 is “inactive”.

With `Nc1c2c(nc3ccccc13)CCCC2`, the cytotoxicity call in the test with HSkMC and in the test with HepG2 was “inactive” each time. Also, the growth inhibition call in the test with S. aureus RN4220 was “inactive”.

For the compound `COc1ccccc1C#Cc1cnc2c(c1)C(=O)N([C@H](C)CO)C[C@H](C)[C@@H](CN(C)C(=O)c1ccc3c(c1)OCO3)O2`, the cytotoxicity call in the test with HSkMC and in the test on HepG2 was “inactive” throughout. In addition, the growth inhibition call with S. aureus RN4220 was “inactive”.

On to `O=C(N[C@H]1CC[C@H](CCn2cc(C3(O)CCCC3)nn2)O[C@@H]1CO)C1CCOCC1`, for which the cytotoxicity call in the test with HSkMC and in the test on HepG2 was “inactive” each time. Besides, the growth inhibition call in the test on S. aureus RN4220 is “inactive”.

With `CCc1nnc(N)o1`, the cytotoxicity call in the test with HSkMC and with HepG2 was “inactive” in each case. The growth inhibition call in the test on S. aureus RN4220 is “inactive”.

With `CO[C@@H]1[C@@H](O[C@@H]2O[C@H](C)[C@@H](O[C@H]3C[C@@](C)(O)[C@@H](OC(=O)CC(C)C)[C@H](C)O3)[C@H](N(C)C)[C@H]2O)[C@@H](CC=O)C[C@@H](C)[C@@H](O)/C=C\C=C/C[C@@H](C)OC(=O)C[C@H]1OC(C)=O`, the cytotoxicity call in the test on HSkMC and in the test with HepG2 was “inactive” in each case. Moreover, the growth inhibition call with S. aureus RN4220 was “active”.

On to `CN1CCN(C(=O)C[C@@H]2CC[C@@H]3[C@H](COC[C@@H](O)CN3C(=O)Nc3ccc4c(c3)OCO4)O2)CC1`, for which the cytotoxicity call in the test on HSkMC and with HepG2 was “inactive” throughout. Also, the growth inhibition call in the test with S. aureus RN4220 is “inactive”.

For `C[C@@H]1CCCCO[C@@H](CN(C)Cc2ccccc2)[C@@H](C)CN([C@@H](C)CO)C(=O)c2cc(NC(=O)Nc3ccccc3)ccc2O1`, the cytotoxicity call with HSkMC and in the test with HepG2 was “inactive” in each case. Moreover, in the test with S. aureus RN4220, the growth inhibition call is “inactive”.

Turning to `COc1ccc(S(=O)(=O)N[C@H]2C=C[C@H](CC(=O)NCCc3ccncc3)O[C@H]2CO)cc1`, the cytotoxicity call in the test with HSkMC and with HepG2 was “inactive” each time. Besides, in the test on S. aureus RN4220, the growth inhibition call was “inactive”.

Take `N#CCCn1c(CC(N)=O)nc2ccccc21`: the cytotoxicity call in the test on HSkMC (human skeletal muscle cells) and in the test on HepG2 was “inactive” each time. Besides, in the test with S. aureus RN4220, the growth inhibition call was “inactive”.

Turning to `C[C@H](CO)N1C[C@H](C)[C@H](CN(C)C(=O)CCC(F)(F)F)OCCCC[C@H](C)Oc2ccc(NS(=O)(=O)c3cccs3)cc2C1=O`, the cytotoxicity call with HSkMC and in the test with HepG2 was “inactive” each time. In the test on S. aureus RN4220, the growth inhibition call is “inactive”.
